Assay results from PMC4336329 (PLoS ONE, 2015).
The whole screen tested about 310,000 compounds, of which about 2,200 (0.71%) showed an effect of 50% or more. Effects have a minus sign here. The list shows a part of the results.

The compounds below were run against human ether-à-go-go-related gene (hERG) potassium channel (human, UniProt Q12809) (assay: primary screen, population patch clamp on CHO cells stably expressing hERG).
human ether-à-go-go-related gene (hERG) potassium channel, sequence (Q12809 whole entry, looked up): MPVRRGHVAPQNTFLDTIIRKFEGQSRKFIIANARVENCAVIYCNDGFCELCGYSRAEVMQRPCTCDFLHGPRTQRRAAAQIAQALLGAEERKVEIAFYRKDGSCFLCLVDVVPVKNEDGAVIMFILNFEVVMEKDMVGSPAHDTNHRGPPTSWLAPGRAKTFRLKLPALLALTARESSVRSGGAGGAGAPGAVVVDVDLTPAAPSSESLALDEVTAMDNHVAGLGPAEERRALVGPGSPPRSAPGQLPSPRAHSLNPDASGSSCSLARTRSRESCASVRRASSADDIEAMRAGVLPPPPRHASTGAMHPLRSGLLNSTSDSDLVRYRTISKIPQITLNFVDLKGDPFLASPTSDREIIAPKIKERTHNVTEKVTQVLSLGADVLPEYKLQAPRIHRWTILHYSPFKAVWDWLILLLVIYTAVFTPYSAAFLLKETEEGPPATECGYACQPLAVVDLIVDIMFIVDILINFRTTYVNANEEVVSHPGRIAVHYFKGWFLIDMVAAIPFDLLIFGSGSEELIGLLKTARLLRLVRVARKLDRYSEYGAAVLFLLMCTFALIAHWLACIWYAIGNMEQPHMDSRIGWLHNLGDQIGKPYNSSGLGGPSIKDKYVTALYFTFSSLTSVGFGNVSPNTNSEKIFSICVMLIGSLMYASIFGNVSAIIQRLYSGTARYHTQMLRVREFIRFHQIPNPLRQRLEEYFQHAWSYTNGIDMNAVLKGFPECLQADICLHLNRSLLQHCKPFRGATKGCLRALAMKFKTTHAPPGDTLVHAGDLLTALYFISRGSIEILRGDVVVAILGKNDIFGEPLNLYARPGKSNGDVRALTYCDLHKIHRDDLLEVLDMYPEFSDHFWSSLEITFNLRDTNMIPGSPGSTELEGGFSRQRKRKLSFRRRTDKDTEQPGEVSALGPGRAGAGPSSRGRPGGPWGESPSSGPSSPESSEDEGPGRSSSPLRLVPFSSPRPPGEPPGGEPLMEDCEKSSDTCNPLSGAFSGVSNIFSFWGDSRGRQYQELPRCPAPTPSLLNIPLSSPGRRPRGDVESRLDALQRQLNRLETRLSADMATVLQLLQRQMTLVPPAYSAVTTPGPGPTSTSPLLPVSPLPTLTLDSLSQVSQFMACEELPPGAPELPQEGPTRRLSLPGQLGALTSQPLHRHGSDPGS
In the case of `O=c1[nH]c(=O)c2nc(-c3ccc(Cl)cc3)cnc2[nH]1`, the “hERG current change (%, negative = inhibition) at 1uM” value was 9.06%.
`CN(C)c1ccc(P(=O)(OCc2ccccc2)C(O)c2ccc(Cl)cc2)cc1` (stereo not drawn) was tested, and the “hERG current change (%, negative = inhibition) at 1uM” value was 5.5%.
With `O=[N+]([O-])c1ccc(/C=C2\CCC(C3=CCCC3)=C2N2CCOCC2)cc1` the “hERG current change (%, negative = inhibition) at 1uM” value was 2.49%.
With `COC(=O)[C@@H](C)NC(=O)c1ccc2oc(CCc3ccccc3)nc2c1` the “hERG current change (%, negative = inhibition) at 1uM” value was 4.24%.
`Cc1ccccc1NC(=O)NC1(C(=O)NCC2CCCO2)CCCCC1` (stereo not drawn) was tested, and the “hERG current change (%, negative = inhibition) at 1uM” value was 13.7%.
For `COc1ccc(-n2cnnc2SCC(=O)c2ccc(S(=O)(=O)N3CCOCC3)cc2)cc1`, the “hERG current change (%, negative = inhibition) at 1uM” value was 10.7%.
With `CCCCNc1ccc(C(CC(N)=O)NC(=O)Cc2cccc3ccccc23)cc1[N+](=O)[O-]` (stereo not drawn) the “hERG current change (%, negative = inhibition) at 1uM” value was 1.16%.
In the case of `CC(C)(O)C#Cc1ccc(CN2CCN(CCc3ccccc3)C(CCO)C2)s1` (stereo not drawn), the “hERG current change (%, negative = inhibition) at 1uM” value was -1.09%.
With `Cc1nnc(SCC(=O)Nc2cccc(Cl)c2)n1CC1CCCO1` (stereo not drawn) the “hERG current change (%, negative = inhibition) at 1uM” value was 17.8%.
With `CCCC(=O)NCCc1cc2ccc(OC)cc2[nH]c1=O` the “hERG current change (%, negative = inhibition) at 1uM” value was 11%.
For `Cc1cc(NC(=O)COC(=O)c2cc([N+](=O)[O-])ccc2N2CCOCC2)ccc1Br`, the “hERG current change (%, negative = inhibition) at 1uM” value was 10.3%.
For `COc1cc(OC)cc(C(=O)N2CCCC(Nc3ccc(F)cc3)C2)c1` (stereo not drawn), the “hERG current change (%, negative = inhibition) at 1uM” value was 9.19%.
With `COc1cc(C(=O)NCCC(C)C)c([N+](=O)[O-])cc1OC` the “hERG current change (%, negative = inhibition) at 1uM” value was 2.08%.
In the case of `CCOC(=O)c1ccc(N2CCN(c3ccc(F)cc3)CC2)c(NC(=O)Nc2cccc(OC)c2)c1`, the “hERG current change (%, negative = inhibition) at 1uM” value was 11.3%.
For `O=C(Nc1cccc(F)c1)C1C2C=CC3(CN(CCCN4CCOCC4)C(=O)C13)O2` (stereo not drawn), the “hERG current change (%, negative = inhibition) at 1uM” value was 0.618%.
In the case of `Cc1ccc(-c2n[nH]c(=O)c3ccccc23)c(C)c1`, the “hERG current change (%, negative = inhibition) at 1uM” value was 19.5%.
With `Cc1cc(C)c(O)c(-c2cc(C(=O)NCCc3ccc(S(N)(=O)=O)cc3)[nH]n2)c1` the “hERG current change (%, negative = inhibition) at 1uM” value was 17.1%.
`Cc1cccc(C(=O)NNC(=O)c2ccc(Cl)cc2)c1O` was tested, and the “hERG current change (%, negative = inhibition) at 1uM” value was 4.67%.
In the case of `O=[N+]([O-])c1ccc(Oc2ccc(S(=O)(=O)Nc3ccccc3)cc2)cc1`, the “hERG current change (%, negative = inhibition) at 1uM” value was 10.6%.
With `CSc1cccc(NC(=S)N2CCC(N(C)C3CCCC3)CC2)c1` the “hERG current change (%, negative = inhibition) at 1uM” value was -1.06%.
In the case of `O=C1CCN(CCCc2ccccc2)CCN1[C@H](CO)c1ccccc1`, the “hERG current change (%, negative = inhibition) at 1uM” value was 1.59%.
`CCCCn1c(N)c(N(CC(C)C)C(=O)c2ccc(Br)s2)c(=O)[nH]c1=O` was tested, and the “hERG current change (%, negative = inhibition) at 1uM” value was -14.1%.
For `Cc1cccc2c(N=O)c(O)n(CCc3ccccc3)c12`, the “hERG current change (%, negative = inhibition) at 1uM” value was 14.9%.
In the case of `CCCCc1nc2cc(C(=O)NCc3nccn3CC)ccc2o1`, the “hERG current change (%, negative = inhibition) at 1uM” value was 11.7%.
In the case of `Cc1cc(NC(=O)C(C)Oc2ccc(C(C)(C)C)cc2)no1` (stereo not drawn), the “hERG current change (%, negative = inhibition) at 1uM” value was 2.41%.
For `COc1cc(C(=O)NC(=S)Nc2ccc([N+](=O)[O-])cc2C)cc(OC)c1OC`, the “hERG current change (%, negative = inhibition) at 1uM” value was 10.2%.
With `CCOc1ccc(CCNC(=O)Cc2ccc(S(=O)(=O)N3CCOCC3)s2)cc1OCC` the “hERG current change (%, negative = inhibition) at 1uM” value was -14.7%.
For `CCC(=O)Nc1c(-c2ccc3ccccc3c2)nc2ccccn12`, the “hERG current change (%, negative = inhibition) at 1uM” value was 8.26%.
For `COc1ccc(C2=Nn3c([n+](C)c4ccccc43)SC2)cc1.[Br-]`, the “hERG current change (%, negative = inhibition) at 1uM” value was -13.2%.
For `COc1cccc(C(C)NC(=S)NCc2ccc(F)cc2)c1` (stereo not drawn), the “hERG current change (%, negative = inhibition) at 1uM” value was 8.65%.
`CNC(=O)CSc1nnc(-c2cccnc2)n1CCc1ccccc1` was tested, and the “hERG current change (%, negative = inhibition) at 1uM” value was 17.6%.
`Cc1cc(C)c(S(=O)(=O)NCC(=O)O)cc1C` was tested, and the “hERG current change (%, negative = inhibition) at 1uM” value was 12.5%.
In the case of `COC(=O)C1=C(c2ccc(C(C)=O)cc2)C[C@@H]2CC[C@H]1N2C(=O)NC1CC1`, the “hERG current change (%, negative = inhibition) at 1uM” value was 12.2%.
In the case of `COc1ccc(NC(=O)CN(C)C(=O)CCCc2c[nH]c3ccccc23)cc1`, the “hERG current change (%, negative = inhibition) at 1uM” value was 16.5%.
With `Cc1ccc(C(=O)Nc2ccc(C(=O)O)cc2)cc1S(=O)(=O)NCc1ccccc1` the “hERG current change (%, negative = inhibition) at 1uM” value was 4.39%.
`Cn1c(=O)c2c(nc(CN3CCN(Cc4ccccc4)CC3)n2Cc2cccc(Cl)c2)n(C)c1=O` was tested, and the “hERG current change (%, negative = inhibition) at 1uM” value was -3.67%.
`COc1ccc(N(CC(=O)NCc2cccnc2)S(=O)(=O)c2ccc(C)c([N+](=O)[O-])c2)cc1` was tested, and the “hERG current change (%, negative = inhibition) at 1uM” value was 1.15%.
In the case of `CC(C)CC1Nc2ncnc(N3CCCCC3)c2N(Cc2ccccc2)C1=O.O=C(O)C(F)(F)F` (stereo not drawn), the “hERG current change (%, negative = inhibition) at 1uM” value was -3.79%.
`CCOC(=O)CCc1c(C)n(CC)c2cc(-c3ccccc3OC)nn2c1=O` was tested, and the “hERG current change (%, negative = inhibition) at 1uM” value was 7.08%.
With `COc1ccc(OC)c(NC(=O)C2CC2c2ccccc2)c1` (stereo not drawn) the “hERG current change (%, negative = inhibition) at 1uM” value was 12.2%.
`CCOC(=O)C1(CC2CC2)CCN(Cc2cn[nH]c2-c2ccccc2)CC1` was tested, and the “hERG current change (%, negative = inhibition) at 1uM” value was -65.5%.
With `CCCn1c(N)c(N(CCOC)C(=O)c2cc3ccccc3cc2OC)c(=O)[nH]c1=O` the “hERG current change (%, negative = inhibition) at 1uM” value was 13.1%.
With `N#C/C(=N\Nc1ccc(Cl)cc1)C(=O)c1ccsc1` the “hERG current change (%, negative = inhibition) at 1uM” value was 20.7%.
For `COc1ccc(/C(O)=C2/C(=O)C(=O)N(c3ccccn3)C2c2ccc(OC)c(OC)c2)cc1` (stereo not drawn), the “hERG current change (%, negative = inhibition) at 1uM” value was 5.35%.
`COc1ccc(NC(=O)CSCC(=O)Nc2ccc(S(=O)(=O)N3CCOCC3)cc2)cc1` was tested, and the “hERG current change (%, negative = inhibition) at 1uM” value was 4.07%.
In the case of `Cc1ccc2c(c1)N(C(=O)CCC(=O)NCc1cccnc1)CC(C)O2` (stereo not drawn), the “hERG current change (%, negative = inhibition) at 1uM” value was -11.4%.
In the case of `COC(=O)C1=C(C)N(CCc2ccccc2)C(=O)C1`, the “hERG current change (%, negative = inhibition) at 1uM” value was 9.77%.
With `CC(C)Cn1c(N)c(C(=O)COC(=O)c2ccc3ccccc3n2)c(=O)n(C)c1=O` the “hERG current change (%, negative = inhibition) at 1uM” value was -20.5%.
In the case of `COc1ccc(Oc2c(C)oc3cc(OC(=O)N4CCOCC4)ccc3c2=O)cc1`, the “hERG current change (%, negative = inhibition) at 1uM” value was 10%.
In the case of `Cc1cc(C)n2nc(SCC(=O)N(CC(C)C)c3c(N)n(CC(C)C)c(=O)[nH]c3=O)nc2n1`, the “hERG current change (%, negative = inhibition) at 1uM” value was 9.3%.
`Fc1ccccc1NC(=S)Nc1cccc2cnccc12` was tested, and the “hERG current change (%, negative = inhibition) at 1uM” value was 23.6%.
`Cn1ncc(Br)c1C(=O)N1CCN(C(=O)c2ccco2)CC1` was tested, and the “hERG current change (%, negative = inhibition) at 1uM” value was 2.31%.
`CCc1cc2c(cc3c(=O)n(CC(=O)N4CCN(C)CC4)ncn32)s1` was tested, and the “hERG current change (%, negative = inhibition) at 1uM” value was 1.59%.
With `COc1ccccc1C(=O)N1CCN(CCc2ccccc2)CC1` the “hERG current change (%, negative = inhibition) at 1uM” value was -31.5%.
